Reference: the supplement of paper PMC3334620
In all, about 33,000 sequences were measured (“E-score (-0.5 to 0.5)”: median about -0.035, highest 2% from about 0.35 on). The list shows a part of the results.

Each sequence was assayed against T1, Pdr3 (UniProt P33200) (assay: PBM E-score (8-mer binding enrichment) (E-score (-0.5 to 0.5)); higher = stronger / more preferred TF binding; most listed sequences are background and not binding sites). Details: protein concentration: 200 nM; construct: GST-full length.
T1 sequence: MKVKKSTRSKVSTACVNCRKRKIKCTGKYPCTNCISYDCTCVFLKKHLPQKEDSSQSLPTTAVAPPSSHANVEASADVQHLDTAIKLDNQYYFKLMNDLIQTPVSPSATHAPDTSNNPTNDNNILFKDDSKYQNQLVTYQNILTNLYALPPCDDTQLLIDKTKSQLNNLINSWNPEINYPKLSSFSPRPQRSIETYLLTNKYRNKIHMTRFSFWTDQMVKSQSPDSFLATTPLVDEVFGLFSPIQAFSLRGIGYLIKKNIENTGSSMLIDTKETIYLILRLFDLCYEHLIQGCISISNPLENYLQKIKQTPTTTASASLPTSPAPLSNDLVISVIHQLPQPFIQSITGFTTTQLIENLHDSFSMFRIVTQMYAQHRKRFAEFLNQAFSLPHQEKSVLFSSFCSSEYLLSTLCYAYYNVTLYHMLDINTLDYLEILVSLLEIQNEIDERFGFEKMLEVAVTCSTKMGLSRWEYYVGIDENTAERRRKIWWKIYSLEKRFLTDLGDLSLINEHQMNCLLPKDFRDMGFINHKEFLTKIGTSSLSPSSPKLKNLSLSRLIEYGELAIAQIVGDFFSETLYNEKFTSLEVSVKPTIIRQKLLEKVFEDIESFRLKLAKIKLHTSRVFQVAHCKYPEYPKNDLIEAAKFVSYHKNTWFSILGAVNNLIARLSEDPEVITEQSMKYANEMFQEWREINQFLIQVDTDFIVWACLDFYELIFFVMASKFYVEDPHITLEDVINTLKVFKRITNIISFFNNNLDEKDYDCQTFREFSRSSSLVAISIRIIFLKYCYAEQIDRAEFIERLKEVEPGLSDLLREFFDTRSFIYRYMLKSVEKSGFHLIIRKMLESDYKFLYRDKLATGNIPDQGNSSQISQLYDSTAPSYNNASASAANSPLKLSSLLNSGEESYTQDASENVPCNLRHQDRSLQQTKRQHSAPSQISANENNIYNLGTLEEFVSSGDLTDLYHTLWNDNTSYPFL
Method in brief: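 Bound GST-tagged yeast transcription factors, applied at about 100-200 nM to double-stranded universal all-10-mer Agilent arrays, were detected with fluorescent anti-GST. Scans were normalised with masliner. A modified Wilcoxon-Mann-Whitney statistic, the E-score, was assigned to each ungapped eight-base word pooled with its reverse complement by the Universal PBM Analysis Suite.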

| Sequence | PBM E-score |
| --- | --- |
| ACCTCGAC | -0.0368 |
| GTTCCAAA | -0.00321 |
| AATAGCAG | -0.158 |
| AATCGGTG | -0.124 |
| ATTCTATC | -0.0228 |
| AGGACACC | 0.0445 |
| TAAAAACA | -0.116 |
| GCACAGCC | 0.0522 |
| ACCCGATG | 0.188 |
| GCCGACAA | -0.0102 |
| ATCTTTGA | -0.0512 |
| CTTCAGCA | -0.227 |
| AAGACTAG | -0.338 |
| GTCTTGAA | -0.0317 |
| AAGCCCGT | -0.162 |
| AATGGGAG | -0.023 |
| ACGTTGTG | -0.0586 |
| CGGCGACA | 0.164 |
| GAGAAATC | -0.0602 |
| ACGTCTCC | -0.107 |
| GACTCCGA | 0.253 |
| CCAAACGC | -0.174 |
| TGGGTAAA | -0.135 |
| ATCACCCC | 0.0523 |
| AACTTATC | 0.179 |

| Sequence | PBM E-score |
| --- | --- |
| GCGCGTCC | 0.127 |
| AGCCCAGA | -0.0226 |
| CCTAGCCG | 0.0212 |
| CTAAAAAC | -0.214 |
| AAGGGGCG | -0.0939 |
| AAGACCAA | -0.0835 |
| GCGCTTCA | 0.052 |
| GAGACTGC | -0.0707 |
| AAACTATG | -0.116 |
| ACGTTAAA | -0.113 |
| CCCTGCGC | -0.0563 |
| TCGTGTCA | -0.13 |
| ACTGATTA | 0.0019 |
| CGTTAAAG | 0.0707 |
| CGTGCTTC | 0.175 |
| CCACGTAG | -0.26 |
| AAACCGAT | -0.024 |
| CAGCGGCC | 0.155 |
| CGTTATAG | -0.0382 |
| ATGTGGTG | 0.0352 |
| GCGGCTCA | 0.0896 |
| CATTTCTC | 0.0391 |
| TGAGAAAA | -0.138 |
| GCACTGCC | 0.0958 |
| AACCCCCA | -0.111 |

| Sequence | PBM E-score |
| --- | --- |
| GAGGTTCA | 0.0391 |
| ACAACAGA | -0.236 |
| CGTACTTC | 0.181 |
| ATAGGCAG | -0.0967 |
| ACATATCG | -0.0946 |
| TACCCGAA | 0.198 |
| CGCACCTA | -0.177 |
| CTAACAAG | -0.354 |
| ACGTTCCT | 0.0124 |
| GGAATACA | 0.277 |
| ACCAAGAG | -0.183 |
| CGGCGCCC | 0.21 |
| GAGCTCAA | 0.153 |
| ATCGGGGA | 0.206 |
| AGCGGATA | 0.3 |
| CGGCTCTC | 0.0198 |
| AGAGTGAA | -0.047 |
| ACGACCAC | -0.106 |
| AGAGGCGC | -0.182 |
| GGCTAGAA | -0.116 |
| ACGCCCCT | -0.285 |
| CCCCACAA | 0.0254 |
| ACATTACG | 0.00878 |
| ATGCTTGC | -0.127 |
| CGAAGCTA | -0.0672 |

| Sequence | PBM E-score |
| --- | --- |
| GCAACAAA | -0.101 |
| CCGACAGA | 0.214 |
| CGCCTCTA | -0.156 |
| CTTTGGGA | -0.195 |
| CTGTACAG | -0.121 |
| AGGATCCT | -0.126 |
| CAGCTCTC | -0.146 |
| CAGCAGTA | -0.159 |
| GCATTACC | -0.00316 |
| TAGGACTA | -0.189 |
| AAATCTTG | -0.0176 |
| AAGACGGG | 0.134 |
| GACCGTAA | 0.057 |
| AGACGGAC | 0.168 |
| ACTGGAAG | -0.276 |
| GCCTAAGC | -0.265 |
| GAACGCCC | 0.191 |
| AATTTGGC | -0.0601 |
| ACGAGCGC | -0.0358 |
| AATTACGT | -0.244 |
| ATGTGATA | -0.248 |
| ATCCCCCA | -0.328 |
| ACATATGG | -0.289 |
| GGCGCAGA | -0.0213 |
| CTACAACC | -0.206 |

| Sequence | PBM E-score |
| --- | --- |
| ACGGTAGC | -0.0662 |
| CTCGCTTC | -0.0941 |
| TAGCATAA | -0.2 |
| CACAATAG | -0.0942 |
| GGCCGGAA | 0.431 |
| AACGTCGA | -0.00146 |
| CAAACGTG | -0.0228 |
| CTCCCACC | -0.254 |
| CGTCAGGC | -0.0585 |
| GAGGCCGA | 0.156 |
| GCGTACGA | -0.0757 |
| TAATAGGA | -0.099 |
| CGTCTAGA | -0.017 |
| ACTTTATG | -0.163 |
| GATGCCAA | -0.237 |
| CGTGCTCA | 0.0128 |
| CCACGACG | 0.0387 |
| CGGCCGCC | 0.298 |
| AATTGTGC | -0.0745 |
| CCTATCGA | -0.222 |
| AAGTGCGG | 0.158 |
| CCATTGTC | -0.0439 |
| ATTGGGGG | -0.152 |
| AGCCGTAG | 0.0635 |
| ACATGTTC | -0.0348 |

| Sequence | PBM E-score |
| --- | --- |
| GCCAGTAA | -0.0802 |
| ACAATAGA | 0.0562 |
| CGCACTCA | 0.0357 |
| CGATAGAG | -0.211 |
| ATTCCAAA | -0.0872 |
| TGACCACA | -0.206 |
| GGCCGGCA | 0.367 |
| AAACATAG | -0.151 |
| ACTTCTAG | -0.306 |
| CAGCGCCA | -0.189 |
| CAATTATC | 0.167 |
| GTAGCGAA | -0.0192 |
| ATTCGCCG | 0.311 |
| CGCGTAAG | -0.105 |
| CGACACCA | -0.0808 |
| CCGCTCCC | 0.151 |
| AGACTCAC | -0.274 |
| ATAAGTAT | -0.0132 |
| CTTCGTTA | -0.0724 |
| CAGGTTAG | -0.137 |
| ATATCTAG | -0.0524 |
| AGGGTTTA | -0.151 |
| TCTTTAAA | -0.0835 |
| ATTGAGGG | -0.0242 |
| ATCGTTTC | -0.0143 |

| Sequence | PBM E-score |
| --- | --- |
| GCAAAGCC | -0.241 |
| AAAACTAG | -0.0811 |
| CCAGAACA | -0.0914 |
| CGGTCTAA | -0.205 |
| CGGGCGTA | 0.0837 |
| TCTTGACA | -0.162 |
| ACTAAGTG | 0.00995 |
| GAGGAGCA | -0.091 |
| GAAGTATA | 0.256 |
| GAGCATGA | -0.127 |
| CCTGCACC | -0.0765 |
| CATTATCC | 0.231 |
| CACGGTAC | 0.103 |
| GCGTTCTA | 0.0812 |
| AAAGATGG | -0.0562 |
| CACAACTG | -0.337 |
| GGCAGCAC | -0.132 |
| CTTGGAAC | -0.0776 |
| CAGATCCG | 0.314 |
| AAATAGCC | 0.0302 |
| GTTCTGAA | -0.122 |
| CGGAGCGC | 0.266 |
